# Assay results published in paper PMC10691697, “A small molecule exerts selective antiviral activity by targeting the human cytomegalovirus nuclear egress complex” (PLOS Pathogens, 2023).
# Values joined by “and” are separate entries in the source; they are usually repeats but may differ in a detail not shown here. Identical values can stand only once.
# What was measured:
# [1] = tested on: co-localization of UL53 with UL50 at the nuclear rim; assay type: cell-based; conditions: 10 μM, WT-infected cells, MOI 1, 72 hpi
# HCMV UL50-UL53 = molecular target: T1, HCMV UL50-UL53 (Human cytomegalovirus, UniProt P16794); experiment: biochemical; assay type: binding; conditions: for HTRF ratio for NEC + GK1: A665nm/A620nm * 10000; for HTRF ratio for NEC + GK1 / Fluorescence at 620 nm for NEC + GK1: replicates; for Fluorescence at 620 nm for NEC + GK1, Mean / HTRF ratio for NEC + GK1, Mean: triplicate
# T1 construct: GST (N, cleaved yes); 13-residue glycine-serine linker […]; made in house; host or cells: E. coli BL21 (DE3) RIPL
smiles,measurement,setting,value
C=CC(=O)Nc1cccc(Oc2cc(Cl)nc3[nH]ccc23)c1 [GK1],subset of cells with substantial nucleoplasmic UL53 staining,[1],~ 20%
same,reduction of NEC subunit interactions in the HTRF assay,HCMV UL50-UL53; 10 μM,~ 2.5 fold
same,HTRF ratio for NEC + GK1,HCMV UL50-UL53; 0.5 microM,58415 and 58982 and 60956
same,Fluorescence at 620 nm for NEC + GK1,HCMV UL50-UL53; 0.5 microM,5180 and 5578 and 5503
same,"Fluorescence at 620 nm for NEC + GK1, Mean",HCMV UL50-UL53; 0.5 microM,5420
same,"HTRF ratio for NEC + GK1, Mean",HCMV UL50-UL53; 0.5 microM,59451
same,HTRF ratio for NEC + GK1,HCMV UL50-UL53; 0.71 microM,54407 and 56455 and 57112
same,Fluorescence at 620 nm for NEC + GK1,HCMV UL50-UL53; 0.71 microM,5106 and 5267 and 5304
same,"Fluorescence at 620 nm for NEC + GK1, Mean",HCMV UL50-UL53; 0.71 microM,5226
same,"HTRF ratio for NEC + GK1, Mean",HCMV UL50-UL53; 0.71 microM,55991
same,HTRF ratio for NEC + GK1,HCMV UL50-UL53; 1.01 microM,49650 and 53513 and 52181
same,Fluorescence at 620 nm for NEC + GK1,HCMV UL50-UL53; 1.01 microM,5540 and 5383 and 5502
same,"Fluorescence at 620 nm for NEC + GK1, Mean",HCMV UL50-UL53; 1.01 microM,5475
same,"HTRF ratio for NEC + GK1, Mean",HCMV UL50-UL53; 1.01 microM,51781
same,HTRF ratio for NEC + GK1,HCMV UL50-UL53; 1.43 microM,46887 and 48106 and 49089
same,Fluorescence at 620 nm for NEC + GK1,HCMV UL50-UL53; 1.43 microM,5391 and 5518 and 5431
same,"Fluorescence at 620 nm for NEC + GK1, Mean",HCMV UL50-UL53; 1.43 microM,5447
same,"HTRF ratio for NEC + GK1, Mean",HCMV UL50-UL53; 1.43 microM,48027
same,HTRF ratio for NEC + GK1,HCMV UL50-UL53; 2.04 microM,41126 and 43851 and 42494
same,Fluorescence at 620 nm for NEC + GK1,HCMV UL50-UL53; 2.04 microM,5615 and 5622 and 5909
same,"Fluorescence at 620 nm for NEC + GK1, Mean",HCMV UL50-UL53; 2.04 microM,5715
same,"HTRF ratio for NEC + GK1, Mean",HCMV UL50-UL53; 2.04 microM,42490
same,HTRF ratio for NEC + GK1,HCMV UL50-UL53; 2.91 microM,40217 and 39971 and 38664
same,Fluorescence at 620 nm for NEC + GK1,HCMV UL50-UL53; 2.91 microM,5392 and 5476 and 5585
same,"Fluorescence at 620 nm for NEC + GK1, Mean",HCMV UL50-UL53; 2.91 microM,5484
same,"HTRF ratio for NEC + GK1, Mean",HCMV UL50-UL53; 2.91 microM,39617
same,HTRF ratio for NEC + GK1,HCMV UL50-UL53; 4.15 microM,31483 and 33868 and 33831
same,Fluorescence at 620 nm for NEC + GK1,HCMV UL50-UL53; 4.15 microM,5975 and 5753 and 5944
same,"Fluorescence at 620 nm for NEC + GK1, Mean",HCMV UL50-UL53; 4.15 microM,5891
same,"HTRF ratio for NEC + GK1, Mean",HCMV UL50-UL53; 4.15 microM,33061
same,HTRF ratio for NEC + GK1,HCMV UL50-UL53; 5.91 microM,32268 and 30080 and 28992
same,Fluorescence at 620 nm for NEC + GK1,HCMV UL50-UL53; 5.91 microM,5852 and 5634 and 5816
same,"Fluorescence at 620 nm for NEC + GK1, Mean",HCMV UL50-UL53; 5.91 microM,5767
same,"HTRF ratio for NEC + GK1, Mean",HCMV UL50-UL53; 5.91 microM,30447
same,HTRF ratio for NEC + GK1,HCMV UL50-UL53; 8.42 microM,25946 and 24980 and 25263
same,Fluorescence at 620 nm for NEC + GK1,HCMV UL50-UL53; 8.42 microM,5854 and 6175 and 6116
same,"Fluorescence at 620 nm for NEC + GK1, Mean",HCMV UL50-UL53; 8.42 microM,6048
same,"HTRF ratio for NEC + GK1, Mean",HCMV UL50-UL53; 8.42 microM,25396
same,HTRF ratio for NEC + GK1,HCMV UL50-UL53; 12 microM,23255 and 23274 and 23606
same,Fluorescence at 620 nm for NEC + GK1,HCMV UL50-UL53; 12 microM,5899 and 5853 and 5912
same,"Fluorescence at 620 nm for NEC + GK1, Mean",HCMV UL50-UL53; 12 microM,5888
same,"HTRF ratio for NEC + GK1, Mean",HCMV UL50-UL53; 12 microM,23378
same,HTRF ratio for NEC + GK1,HCMV UL50-UL53; 17.1 microM,17877 and 20917 and 19067
same,Fluorescence at 620 nm for NEC + GK1,HCMV UL50-UL53; 17.1 microM,6496 and 6008 and 6376
same,"Fluorescence at 620 nm for NEC + GK1, Mean",HCMV UL50-UL53; 17.1 microM,6293
same,"HTRF ratio for NEC + GK1, Mean",HCMV UL50-UL53; 17.1 microM,19287
same,HTRF ratio for NEC + GK1,HCMV UL50-UL53; 24.2 microM,18144 and 18416 and 18741
same,Fluorescence at 620 nm for NEC + GK1,HCMV UL50-UL53; 24.2 microM,5803 and 5999 and 5884
same,"Fluorescence at 620 nm for NEC + GK1, Mean",HCMV UL50-UL53; 24.2 microM,5895
same,"HTRF ratio for NEC + GK1, Mean",HCMV UL50-UL53; 24.2 microM,18434
same,HTRF ratio for NEC + GK1,HCMV UL50-UL53; 34.7 microM,15326 and 15907 and 15649
same,Fluorescence at 620 nm for NEC + GK1,HCMV UL50-UL53; 34.7 microM,6036 and 5898 and 6162
